Results are given in words; binding and its absence hold for the method and conditions named. Some binding calls cover weakened binding; strength is not graded here.
B1: full-length Cyk3 (protein, UniProt Q07533 1-885)
chain: MATNLTSLKPPFKVKARYGWSGQTKGDLGFLEGDIMEVTRIAGSWFYGKLLRNKKCSGYFPHNFVILLEERLNSSTENGRQPSKIVESFEKSNKVVIPPVPSRYSDERPRPKKKLSSSMPNSPKKPVDSLTKARKAKSKEMVNEKNIYNTQSSRHHNNSAPNLPLASHSKPQVRNFEESMNNPLPPLPPLPDLDNMRKTDKRAPKKSYSANDLHMARSSREYNYYKDNQKFYDGFIPEKRYSLEEDSISSGLFSNSQYLNDSACSSENSFALMSDFSATSAGSFARHKYAQSFSDSLQRSQNANGCSTKINDSQEFGDSNASSRNGKMGDILRKIIIPKRNTNIYSSSVSSPKSPKAYPKLPDIQNLNLSATPDEARDWIAVKCHLNRARTLTKYDKHPRYMRALEENRDLILHPQDSIYNGLNTNEVKGNTKPGLVDVELAELNIEYIDKMTWKRCIRDGTMTLDSWAQTTFSARYSTVLEKLRGIYIFCTEMFALTDDNGTSDFSAEPQNLEKILYRKHCTPYELTWLFKKLANSLGITCEIVIGFLKTPSAINWEFKYNHCWLRILVNKEWRFIDVILGNVTNPIHEFVNNRKIKKAENSYFLMAPLEMIYTHIPPREFEQHIVPSIDQLSALYLPLVFPSFFKNELKLYKFSTALSFLEDSEIYECSLEIPNDVEVFASVVIPTDNEEASSAYRNMELALTQIKKQKAESGRRIALIKAVLPPNVNKGSLYIHSGVRGTQTSIANIHPLSMMVPLTHKGSNMKYEFVIKIPSESIQKIELYIVEPQSRYLFVGNEYSFEVIQSPSDGIVYSSDEGPNQNRKQPMAIKSPSGRVHELVKSDPHFPYGTWKGSIKIKEPGVWSALVIADSGIGWSVFAEWLCV
B2: Cyk3-68-885 (domain or fragment, UniProt Q07533 68-885)
chain: LEERLNSSTENGRQPSKIVESFEKSNKVVIPPVPSRYSDERPRPKKKLSSSMPNSPKKPVDSLTKARKAKSKEMVNEKNIYNTQSSRHHNNSAPNLPLASHSKPQVRNFEESMNNPLPPLPPLPDLDNMRKTDKRAPKKSYSANDLHMARSSREYNYYKDNQKFYDGFIPEKRYSLEEDSISSGLFSNSQYLNDSACSSENSFALMSDFSATSAGSFARHKYAQSFSDSLQRSQNANGCSTKINDSQEFGDSNASSRNGKMGDILRKIIIPKRNTNIYSSSVSSPKSPKAYPKLPDIQNLNLSATPDEARDWIAVKCHLNRARTLTKYDKHPRYMRALEENRDLILHPQDSIYNGLNTNEVKGNTKPGLVDVELAELNIEYIDKMTWKRCIRDGTMTLDSWAQTTFSARYSTVLEKLRGIYIFCTEMFALTDDNGTSDFSAEPQNLEKILYRKHCTPYELTWLFKKLANSLGITCEIVIGFLKTPSAINWEFKYNHCWLRILVNKEWRFIDVILGNVTNPIHEFVNNRKIKKAENSYFLMAPLEMIYTHIPPREFEQHIVPSIDQLSALYLPLVFPSFFKNELKLYKFSTALSFLEDSEIYECSLEIPNDVEVFASVVIPTDNEEASSAYRNMELALTQIKKQKAESGRRIALIKAVLPPNVNKGSLYIHSGVRGTQTSIANIHPLSMMVPLTHKGSNMKYEFVIKIPSESIQKIELYIVEPQSRYLFVGNEYSFEVIQSPSDGIVYSSDEGPNQNRKQPMAIKSPSGRVHELVKSDPHFPYGTWKGSIKIKEPGVWSALVIADSGIGWSVFAEWLCV
B3: Cyk3-1-74 (domain or fragment, UniProt Q07533 1-74)
chain: MATNLTSLKPPFKVKARYGWSGQTKGDLGFLEGDIMEVTRIAGSWFYGKLLRNKKCSGYFPHNFVILLEERLNS
B4: Cyk3-475-764 (domain or fragment, UniProt Q07533 475-764)
chain: ARYSTVLEKLRGIYIFCTEMFALTDDNGTSDFSAEPQNLEKILYRKHCTPYELTWLFKKLANSLGITCEIVIGFLKTPSAINWEFKYNHCWLRILVNKEWRFIDVILGNVTNPIHEFVNNRKIKKAENSYFLMAPLEMIYTHIPPREFEQHIVPSIDQLSALYLPLVFPSFFKNELKLYKFSTALSFLEDSEIYECSLEIPNDVEVFASVVIPTDNEEASSAYRNMELALTQIKKQKAESGRRIALIKAVLPPNVNKGSLYIHSGVRGTQTSIANIHPLSMMVPLTHKGS
B5: SH3 domain of Hof1 (two-hybrid fragment) (domain or fragment, UniProt Q05080 599-667)
chain: PVIEYAKAMYPLIGNEAPGLANFHKGDYLLITEIVNKDWYKGEVYDNDRIDRNHRIGLIPYNFIQLLHQ
B6: Cyk3-765-885 (domain or fragment, UniProt Q07533 765-885)
chain: NMKYEFVIKIPSESIQKIELYIVEPQSRYLFVGNEYSFEVIQSPSDGIVYSSDEGPNQNRKQPMAIKSPSGRVHELVKSDPHFPYGTWKGSIKIKEPGVWSALVIADSGIGWSVFAEWLCV

Protein sequences, listed by entry. Tags and fused reporters are not part of them. Residues count along the entry.
UniProt P23201, residues 1-145: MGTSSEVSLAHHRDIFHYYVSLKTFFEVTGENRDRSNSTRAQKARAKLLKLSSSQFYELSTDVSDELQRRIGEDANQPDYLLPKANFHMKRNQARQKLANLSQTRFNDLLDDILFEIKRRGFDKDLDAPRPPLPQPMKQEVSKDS

biological target: Spa2-1-145 (S. cerevisiae) (UniProt P23201); assay: two-hybrid; vectors pGADT7 and pGBKT7; growth at 30°C on SC medium lacking leucine, tryptophan and histidine (selective), 3-4 days

binding	Binder
binds	B1
binds	B2
binds	B3
binds	B4
binds	B5
binds	B6

From publication PMC5895073, “Cell polarity protein Spa2 coordinates Chs2 incorporation at the division site in budding yeast” (PLoS Genetics, 2018)
